The values that follow come from the supplement of paper PMC11417369.

± gives the standard deviation of the averaged measurements. The list shows a part of the results.

For the assay, the system named is PfAP2-LT AP2 domain (GST-tagged). Nature of the assay: gcPBM binding intensity (ln(normalized median fluorescence intensity)); higher = stronger DNA binding. In a few lines:
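Binding intensity values are the highest Masliner-normalised natural-log median intensity among replicate spots of either probe orientation. The binding step lasted 1 h in 1× PBS with 1% milk, 0.2 mg/ml BSA, 0.5% salmon testes DNA and 0.03% Triton X-100, using GST-tagged P. falciparum DNA-binding domains expressed in E. coli on an Agilent 4 × 180k array of primer-extended double-stranded 36-bp intergenic genomic probes plus negative controls. Alexa488 anti-GST antibody and a 488 nm scan detected bound protein.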
In the case of “TATTAACACAATAGCGCACACTTTTAATATTTTATA [CACACA_site1617]”, the “gcPBM binding intensity (ln)” value was found to be 8.88 ± 0.37.

For the sequence “AAAGAATACAAAATTGCACACATATTGTGAAAATGT [CACACA_site9327]”, the “gcPBM binding intensity (ln)” value turned out to be 9.38 ± 0.49.

For the sequence “CTTAAATTGAAATGTTGTACAAAGTAAAAACAATGA [XGTACX_site2123]”, the “gcPBM binding intensity (ln)” value is 8.88 ± 0.44.

Consider “CATATTTTATTATATACATGCAATTTTAATATATAT [TGCATGCA_site544]”, for which the “gcPBM binding intensity (ln)” value is 8.57 ± 0.4.

For the sequence “TATAATTTAACGACATGTACATATAAAAAAATATTT [XGTACX_site2395]”, the “gcPBM binding intensity (ln)” value is 8.94 ± 0.38.

Consider “AAAATGTATTCTCTCATGCACACTTTCTTTAAGGGA [CACACA_site2196]”, for which the “gcPBM binding intensity (ln)” value was determined as 8.67 ± 0.35.

“ATACACATTCTTCCGACATAATAAGAAAAAGAAAAA [CACACA_negctrl_site9]”: the “gcPBM binding intensity (ln)” value is 8.71 ± 0.4.

With “TGTAGATTTTGTAACACACACATATAAATACCTATA [CACACA_site7183]”, the “gcPBM binding intensity (ln)” value amounted to 9.16 ± 0.37.

Turning to “TTATTTATATTTTTTTGTACACATATTGTATACATA [XGTACX_site1178]”, the “gcPBM binding intensity (ln)” value was determined as 8.88 ± 0.5.

Regarding “AAACATATATACATATGTACATATATACATATATGT [XGTACX_site5779]”, the “gcPBM binding intensity (ln)” value was 8.94 ± 0.4.

With “TATAAACCTTTTTGCACGCACACAAAAAAAAAATAA [CACACA_site168]”, the “gcPBM binding intensity (ln)” value came to 8.99 ± 0.52.

In the case of “TTCGGAAAAATTAAAGCACACAAAAAAAAATAAAAA [CACACA_site8296]”, the “gcPBM binding intensity (ln)” value was found to be 8.75 ± 0.49.

Take GACTATAATGTTTTGGTGCGTCATGTTATGGTCATC: the “gcPBM binding intensity (ln)” value is 9.13 ± 0.45.

For the sequence “GATTAACAACATATTAGTACATATATTATATATATA [XGTACX_site7646]”, the “gcPBM binding intensity (ln)” value came to 8.66 ± 0.43.

For “TATTTATATATATGATGTACATAAGGTGTAATGTTA [XGTACX_site5591]”, the “gcPBM binding intensity (ln)” value stood at 8.78 ± 0.42.

Regarding “TACATGAATATTTATACATGCACACTAAAATAAAGA [TGCATGCA_site611]”, the “gcPBM binding intensity (ln)” value came to 8.88 ± 0.4.

On to “TATTTACATACAAAATGTACAAAAATATATTTTTTT [XGTACX_site888]”, for which the “gcPBM binding intensity (ln)” value is 8.6 ± 0.38.

For the sequence “ATATATATTTAATGTTGTACATAAAAAATATATAAA [XGTACX_site7774]”, the “gcPBM binding intensity (ln)” value came out at 8.46 ± 0.48.

Regarding “ATCTCTTATATATTCACACACATATATATAATTATA [CACACA_site1502]”, the “gcPBM binding intensity (ln)” value was found to be 9.16 ± 0.35.

As for “AAATATAATAACGAACGTACTTATTATAATTTGTAA [XGTACX_site2342]”, the “gcPBM binding intensity (ln)” value came out at 8.68 ± 0.41.

In the case of “TTATTTTTTTTATATATATGTATAAATATATATATA [XGTACX_negctrl_site441]”, the “gcPBM binding intensity (ln)” value amounted to 8.53 ± 0.44.

For the sequence “TTTTGTTTTAATTTTATTTGATTTTATTTGATTTAT [CACACA_negctrl_site692]”, the “gcPBM binding intensity (ln)” value was found to be 8.68 ± 0.49.

Turning to “ATATAACATATCAATTGTACGTATTGATAATATATA [XGTACX_site2504]”, the “gcPBM binding intensity (ln)” value amounted to 8.78 ± 0.35.

Turning to “ATATTTATATGGTTTGCACACATAACAACTATGGTT [CACACA_site3631]”, the “gcPBM binding intensity (ln)” value came out at 9.33 ± 0.38.

For “AGGCACACAAACATATGTACACATATATATATATAT [XGTACX_site4723]”, the “gcPBM binding intensity (ln)” value came to 10.21 ± 0.078.
